Data on 90 compounds can be found in PMC4336329 (PLoS ONE, 2015).

The structures appear in SMILES notation. The campaign covered roughly 310,000 compounds. About 14,000 (4.5%) showed an effect of 50% or more. Effects have a minus sign here. Some of the results follow.
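Further: peak tail current of the secondary pulse compared with the same well before compound.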

Sequence of human ether-à-go-go-related gene (hERG) potassium channel (Q12809 whole entry, looked up): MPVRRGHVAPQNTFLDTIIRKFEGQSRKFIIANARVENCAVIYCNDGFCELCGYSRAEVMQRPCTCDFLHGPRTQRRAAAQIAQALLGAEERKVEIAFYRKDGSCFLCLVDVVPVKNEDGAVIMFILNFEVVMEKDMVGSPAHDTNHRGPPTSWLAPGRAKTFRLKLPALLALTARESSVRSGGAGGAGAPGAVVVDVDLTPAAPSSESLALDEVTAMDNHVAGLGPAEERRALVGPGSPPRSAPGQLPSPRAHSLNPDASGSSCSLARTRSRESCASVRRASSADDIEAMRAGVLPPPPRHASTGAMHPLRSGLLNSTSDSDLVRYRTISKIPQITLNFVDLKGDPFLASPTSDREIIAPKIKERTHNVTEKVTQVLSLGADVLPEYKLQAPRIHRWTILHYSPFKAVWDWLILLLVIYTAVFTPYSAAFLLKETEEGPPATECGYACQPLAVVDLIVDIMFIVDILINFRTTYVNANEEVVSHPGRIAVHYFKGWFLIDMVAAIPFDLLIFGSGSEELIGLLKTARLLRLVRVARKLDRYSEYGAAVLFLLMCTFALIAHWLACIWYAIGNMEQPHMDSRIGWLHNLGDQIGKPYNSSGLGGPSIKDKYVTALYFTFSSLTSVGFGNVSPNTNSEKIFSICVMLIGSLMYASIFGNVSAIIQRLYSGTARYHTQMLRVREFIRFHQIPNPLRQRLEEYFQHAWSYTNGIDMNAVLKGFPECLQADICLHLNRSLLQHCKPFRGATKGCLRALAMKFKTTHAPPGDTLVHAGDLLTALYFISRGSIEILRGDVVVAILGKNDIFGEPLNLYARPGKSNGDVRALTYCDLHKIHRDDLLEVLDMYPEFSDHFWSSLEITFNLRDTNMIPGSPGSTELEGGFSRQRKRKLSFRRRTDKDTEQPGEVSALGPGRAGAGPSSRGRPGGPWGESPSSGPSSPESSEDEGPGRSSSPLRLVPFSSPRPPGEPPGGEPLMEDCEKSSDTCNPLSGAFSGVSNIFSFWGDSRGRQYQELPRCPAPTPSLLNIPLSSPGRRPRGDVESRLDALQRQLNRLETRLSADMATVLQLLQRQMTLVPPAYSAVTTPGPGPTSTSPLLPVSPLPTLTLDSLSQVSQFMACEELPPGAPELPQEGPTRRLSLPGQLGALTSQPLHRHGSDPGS

This test has as its target human ether-à-go-go-related gene (hERG) potassium channel (human, UniProt Q12809). As to the kind of experiment: primary screen, population patch clamp on CHO cells stably expressing hERG.
`CCCOC(=O)CCc1n[nH]c(=O)[nH]c1=O`: the “hERG current change (%, negative = inhibition) at 10uM” value was 6.02%.
With `CCNc1nc(NC(C)C)nc(N(n2cnnc2)S(=O)(=O)c2ccc(C)cc2)n1` the figure was -25.1%; with `COC(=O)/C(C#N)=C/c1c(N2CCN(C)CC2)nc2ccccn2c1=O`, 11.1%; with `Cc1cccc(NS(=O)(=O)c2cc3c4c(c2)CCN4C(=O)CC3)c1C`, -0.992%.
For `CCN(CC)C(=S)SCC(=O)c1ccccc1`, the “hERG current change (%, negative = inhibition) at 10uM” value is listed as -0.159%.
With `CC1CCN(S(=O)(=O)N2CCC(C(=O)O)CC2)CC1` the figure was 24.4%.
Next, `C=CCn1c(O)c2ccc(C(=O)N=NC(=O)COc3ccccc3F)cc2c1O`: 19.4%.
Consider `C/C(=N\NC(=O)Cn1ccc(C(F)(F)F)n1)c1ccc(N2CCOCC2)cc1`, for which the “hERG current change (%, negative = inhibition) at 10uM” value was 6.48%.
With `Cl.c1coc(CN(Cc2cccs2)Cc2nnnn2C2CCCCC2)c1`, the “hERG current change (%, negative = inhibition) at 10uM” value is -1.8%.
For the compound `O=C(NCCc1ccccn1)c1cc(-c2ccccc2Cl)nc2ccccc12`, the “hERG current change (%, negative = inhibition) at 10uM” value was -2.8%.
As to `CCOc1cc(/C=N\NC(N)=O)cc(Br)c1OC(C)C`, the “hERG current change (%, negative = inhibition) at 10uM” value is listed as -19.8%.
As for `CC(OC(=O)c1nsc(Cl)c1Cl)C(=O)NCCc1ccccc1` (stereo not drawn), the “hERG current change (%, negative = inhibition) at 10uM” value was -65.4%.
With `CC(OC(=O)CC(NC(=O)c1ccccc1Cl)c1ccccc1)C(=O)Nc1cccc(Cl)c1Cl` (stereo not drawn) the figure was -14.7%.
With `CCNc1ccc(S(=O)(=O)C(F)(F)F)cc1NC(=O)C12CCC(CC1)C2` the figure was 15.8%; with `O=C(CCC(=O)Nc1ccccc1)N/N=C/c1ccc2c(c1)OCO2`, 28.7%; with `Cn1cc(CN2CCC(C(=O)Nc3ccc(Oc4ccccc4F)cc3)CC2)cn1`, -65.6%.
With `CC(SCCc1ccccn1)C(=O)O` (stereo not drawn) the figure was -3.91%.
With `Cc1nccn1CC(O)COc1ccc(Cl)cc1Cl` (stereo not drawn), the “hERG current change (%, negative = inhibition) at 10uM” value was -49.6%.
Next, `CCC(=O)NC(/C=C/c1ccccc1)c1cc([N+](=O)[O-])c2cccnc2c1O` (stereo not drawn): 21.5%.
Next, `CN1C/C(=C\c2ccc(N3CCOCC3)cc2)C(=O)/C(=C/c2ccc(N3CCOCC3)cc2)C1`: -4.91%; `COC(=O)c1sc(S(=O)(=O)Nc2ccc3cn[nH]c3c2)c(C(=O)OC)c1C`: 6.26%.
With `COc1cccc(NC(=O)c2cccs2)c1` the figure was -1.18%.
Consider `CCC1(CC)NC(=O)N(CC(=O)OCC(=O)Nc2ccc(C(F)(F)F)cc2)C1=O`, for which the “hERG current change (%, negative = inhibition) at 10uM” value came out at 1.14%.
Take `Cc1ccc(-c2n[nH]c(=O)c3ccccc23)cc1S(=O)(=O)Nc1ccccc1`: the “hERG current change (%, negative = inhibition) at 10uM” value was -0.992%.
Next, `C=CCn1c(C)nnc1SCC(=O)Nc1nc(C)c(C(=O)N(C)C)s1`: -0.903%.
Next, `COc1ccc(NC(=O)C2CCN(S(=O)(=O)c3cccc4cccnc34)CC2)cc1`: 5.62%; `FC(F)(F)c1cc(-c2ccco2)nc(-n2nc(C(F)(F)F)cc2C2CC2)n1`: 2.87%; `Cc1ccc(C(=O)Nc2ccn(Cc3ccc(F)cc3)n2)o1`: -25.3%.
Next, `N#Cc1cccc(C(=O)OCC(=O)N2CCCc3ccccc32)c1`: -1.94%; `O=C1Nc2ccccc2S/C1=C/Nc1cccc(Cl)c1`: -3.01%; `O=C(Nc1cccc(N2CCCC2)c1)c1cccs1`: -2.81%.
Turning to `COc1ccc(-c2cc(-c3ccccc3)nc3ncnn23)cc1`, the “hERG current change (%, negative = inhibition) at 10uM” value is -56.4%.
As to `COc1ccc(OC)c(C(=O)NC(CC(N)=O)c2ccc(NCc3ccc(F)c(F)c3)c([N+](=O)[O-])c2)c1` (stereo not drawn), the “hERG current change (%, negative = inhibition) at 10uM” value is -5.23%.
With `CC(=O)N1CCC(=NNc2nc3ccccc3s2)CC1` the figure was 4.41%; with `O=C(C1CCCCC1)N1CCC(c2nc3c(nnn3Cc3c(F)cccc3Cl)c(=O)[nH]2)CC1`, -6.61%.
As to `CCOC(=O)COc1ccc(S(=O)(=O)Nc2ccc3c(c2)OCO3)cc1`, the “hERG current change (%, negative = inhibition) at 10uM” value is reported as -0.179%.
With `CC(=O)c1ccc(N2CCc3ccccc3C2)c([N+](=O)[O-])c1` the figure was -6.56%; with `COc1cc2c(cc1OC)C(c1ccc(Br)cc1)NCC2` (stereo not drawn), -19.8%.
With `COc1ccc([N+](=O)[O-])cc1NC(=O)c1ccco1` the figure was 1.01%; with `Cc1nc2ccccn2c1-c1ccnc(=S)[nH]1`, 29%.
In the case of `Cn1cc(CC(=O)N2CCN(c3ccc(Cl)cc3)CC2)c2ccccc21`, the “hERG current change (%, negative = inhibition) at 10uM” value is -9.66%.
In the case of `O=c1oc2cccnc2n1CCS(=O)(=O)c1ccc(F)cc1`, the “hERG current change (%, negative = inhibition) at 10uM” value is on record as 9.29%.
Next, `Nc1nc(SCC(=O)Nc2ccc(Cl)cn2)n[nH]1`: 17.1%; `Cc1cc(C)c(NC(=O)CN2CCC(NC(=O)NC3CCCCC3)CC2)c(C)c1`: 4.23%.
Next, `CN1CCN(c2ccc([N+](=O)[O-])cc2C(=O)N2CCCCC2)CC1`: -7.66%; `CN(C(=O)OC(C)(C)C)c1ccc(-c2nc3ccccc3s2)cc1`: 21.9%.
Next, `COc1cccc(NC(=O)Nc2ccc(Br)cn2)c1`: 17.6%; `Cc1c(Cl)c([N+](=O)[O-])nn1CC(=O)Nc1c(C)n(C)n(-c2ccccc2)c1=O`: 2.53%; `CCC(=O)Oc1ccc(C/C(=N\O)c2ccc(O)cc2O)o1`: -8.07%.
With `COc1ccc(OC)c(S(=O)(=O)n2cnc3ccccc32)c1`, the “hERG current change (%, negative = inhibition) at 10uM” value was -5.26%.
With `Cc1cc(C(=O)CCC(=O)N2CCN(c3ccccc3)CC2)c(C)s1` the figure was -36.6%.
Next, `COc1cc2ncnc(NCc3ccc(C)cc3)c2cc1OC`: -0.937%; `COC(=O)CSc1ncnc2c1cnn2-c1ccc(C)cc1C`: 0.428%.
With `CCc1ccc(CNC(=O)C(=O)NCC2CCCO2)cc1` (stereo not drawn) the figure was 9.58%; with `O=C(NCCS(=O)(=O)N1CCN(c2cccc(Cl)c2)CC1)C1CCCC1`, -79%.
Regarding `COc1cc([N+](=O)[O-])cc2sc(NC(=O)c3c(F)cccc3F)nc12`, the “hERG current change (%, negative = inhibition) at 10uM” value is recorded as -8.06%.
Next, `CCOc1ccc(NC(=S)N(CCCN2CCOCC2)Cc2cn(C)c3ccccc23)cc1`: -37.6%; `Cc1ccc(NC(=O)CCSc2nc(C)cc(C)n2)cc1`: 9.91%; `COc1ccc(S(=O)(=O)NCC(=O)N(CC(=O)NCc2ccco2)C2CCCC2)cc1`: 16.9%.
Next, `COc1ccc(C2CC(=O)Nc3cc(OC)c(OC)cc32)cc1Br` (stereo not drawn): 11.9%; `Cc1cccc(C)c1OC(=O)Cc1ccccc1[N+](=O)[O-]`: -4.62%; `O=C(c1cc(-c2cccs2)on1)N1CCCc2ccccc21`: -11.2%.
For the compound `COc1ccc(CC(=O)Nc2ccc3c(c2)CCC3)cc1OC`, the “hERG current change (%, negative = inhibition) at 10uM” value was -7.09%.
As to `CCC1CCCCN1C(=O)COc1ccc2c3c(c(=O)oc2c1)CCC3` (stereo not drawn), the “hERG current change (%, negative = inhibition) at 10uM” value is reported as -17.7%.
For the compound `CN1/C(=C\C=C2/SC(=S)NC2=O)C(C)(C)c2ccccc21`, the “hERG current change (%, negative = inhibition) at 10uM” value was found to be 3.39%.
As to `CCSc1nnc(Cn2c(=O)sc3ccccc32)n1-c1ccc(OC)cc1`, the “hERG current change (%, negative = inhibition) at 10uM” value was -10.3%.
With `COc1cccc(-c2sc3ccc(OC)cc3c2-c2ccc(C(N)=O)cc2)c1` the figure was 12.7%.
Next, `Cc1cccc(-c2n[nH]c(=S)n2/N=C/c2ccco2)c1`: 2.87%; `CCC1CCCCN1CCCNC(=O)c1ccc(N2CCCC2=O)cc1` (stereo not drawn): -0.0254%.
With `O=c1c2cccc(Cl)c2nc2n1Cc1ccccc1-2` the figure was 4.04%.
Regarding `Cc1cc(C)c(C(=O)COC(=O)c2c(C)noc2C)cc1C`, the “hERG current change (%, negative = inhibition) at 10uM” value is on record as -10.5%.
With `CCOc1ccc(S(=O)(=O)NCc2ccccc2Cl)cc1C(N)=O`, the “hERG current change (%, negative = inhibition) at 10uM” value came out at 2.73%.
In the case of `CCOC(=O)c1nn(-c2ccccc2F)c2nc(-c3ccco3)c(C#N)c(=O)n12`, the “hERG current change (%, negative = inhibition) at 10uM” value is listed as 9.1%.
With `CCn1cc(S(=O)(=O)NCCc2ccc(OC)c(OC)c2)cn1` the figure was -49.5%; with `NS(=O)(=O)c1cccc(NC(=O)Cn2cc(C(F)(F)F)cc(Cl)c2=O)c1`, 7.23%.
As to `CCOc1c(C)cc(-c2ncccc2O)cc1C.Cl`, the “hERG current change (%, negative = inhibition) at 10uM” value was -5.17%.
With `CC1CCN(C(=O)Cn2c(=O)n(-c3ccc(F)cc3)c(=O)c3sccc32)CC1` the figure was 5.04%.
For `Cc1cccc(N(C(=O)Cn2nnc3ccccc32)C(C(=O)NC(C)(C)C)c2ccsc2)c1` (stereo not drawn), the “hERG current change (%, negative = inhibition) at 10uM” value stood at 13.4%.
Next, `Nc1ccccc1SCc1ccccc1`: -2.24%; `CCN(CC)C(=S)SCC(=O)NC12CC3CC(CC(C3)C1)C2`: -11.6%; `O=C1C(=O)N(C/C=C/c2ccccc2)c2ccccc21`: 14.8%.
With `COc1ccc(-n2nnnc2/C=C\Nc2ccc(C)cc2)cc1` the figure was 16%; with `Cc1nn(-c2ccccc2)c2[nH]c(=O)c(CNc3ccc(N4CCOCC4)cc3)cc12`, -2.31%.
With `COc1ccc(NC(=O)C2=NN(c3ccccc3)C(=O)CC2)cn1` the figure was -20.6%; with `O=C(O)C1CCCN1C(=O)c1cncc(Br)c1` (stereo not drawn), -0.387%.
`COc1cc2ccnc(Cc3cccc(OC)c3OC)c2cc1OC.Cl`: the “hERG current change (%, negative = inhibition) at 10uM” value is on record as -15%.
With `COc1ccccc1C(=O)NCC(=O)NCCSc1ccc(Br)cc1` the figure was -1.68%; with `CCCc1cc(=O)[nH]c(SCC(=O)N(C)CC(=O)Nc2ccc(F)cc2)n1`, 26%.
With `O=C(CCCc1nc(-c2ccccc2)no1)NCc1cccnc1` the figure was -18.9%; with `CCCCc1cc(=O)oc2cc(OCC(=O)N3CCc4ccccc43)ccc12`, 6.81%.
